The other results are listed elsewhere or left out. At the low end of the ranking the order means little.

In this experiment the target is T1, GST-Rok (full length) (UniProt O34857).
T1 sequence: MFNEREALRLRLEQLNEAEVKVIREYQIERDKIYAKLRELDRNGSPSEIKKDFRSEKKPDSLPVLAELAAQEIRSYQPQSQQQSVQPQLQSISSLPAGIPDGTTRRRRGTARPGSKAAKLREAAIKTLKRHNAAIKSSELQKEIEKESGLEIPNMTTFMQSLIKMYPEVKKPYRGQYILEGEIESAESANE
Nature of the experiment: protein binding microarray.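 Note: rank score from −0.5 (least bound) to 0.5 (best bound).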 The following applies: Rok is a gene silencer of Bacillus subtilis; high values mean tight binding; most listed sequences are background and not binding sites; double strand, one strand shown.
For GATAGTCC, the binding signal is -0.127 E-score.

In turn, GACGAAGA registered a binding signal of 0.0676 E-score.

For CCATGGCG, the binding signal was -0.139 E-score.

Sequence CCGAGTGC showed a binding signal of -0.17 E-score.

In turn, CAGCGGGC yielded a binding signal of -0.192 E-score.

In turn, TCGCAGCA came in with a binding signal of -0.169 E-score.

In the case of CCTTCCTA, the binding signal was -0.242 E-score.

In turn, ATAGAGGA showed a binding signal of -0.116 E-score.

Consider ATCTGCGA, for which the binding signal turned out to be 0.0364 E-score.

Regarding CACGGCGA, the binding signal is -0.065 E-score.

AACGGCAG returned a binding signal of -0.296 E-score.

Turning to CAAGACTC, the binding signal was -0.212 E-score.

With GTTACAAC, the binding signal came to 0.155 E-score.

Sequence AACTTTAA showed a binding signal of 0.168 E-score.

The sequence CCCATGAG showed a binding signal of 0.0171 E-score.

CGAGGGGA returned a binding signal of -0.339 E-score.

Turning to TCTAGACA, the binding signal is 0.125 E-score.

For the sequence ACCCGGAG, the binding signal was -0.0128 E-score.

CTTACCAA gave a binding signal of 0.0375 E-score.

ATAACGAC came in with a binding signal of 0.15 E-score.

The sequence CGTCCGTC had a binding signal of -0.247 E-score.

In the case of ACTCTCAT, the binding signal came out at 0.162 E-score.

ATTTCGAC displayed a binding signal of 0.106 E-score.

Turning to ACCCAACC, the binding signal was found to be 0.0888 E-score.

Sequence CTATGGGC returned a binding signal of -0.011 E-score.

AATGCTAC returned a binding signal of 0.219 E-score.

Turning to AGCCCTGG, the binding signal was -0.272 E-score.

AAGAAGCC yielded a binding signal of -0.22 E-score.

Sequence ATTTCTGG came in with a binding signal of 0.149 E-score.

Take CTGAGGTA: the binding signal is 0.125 E-score.

Take CCAGCGTA: the binding signal was -0.151 E-score.

AACTGCAA yielded a binding signal of 0.141 E-score.

CTTCCCGC gave a binding signal of -0.286 E-score.

AGGATTTG showed a binding signal of -0.093 E-score.

Sequence CGTGGGGC returned a binding signal of -0.361 E-score.

In turn, GCGAAGAC yielded a binding signal of -0.171 E-score.

As for ACGAGTTC, the binding signal is -0.00762 E-score.

Consider GGTGCGAA, for which the binding signal is -0.123 E-score.

Consider GCAAAGAC, for which the binding signal was -0.0851 E-score.

GACCTATA: the binding signal worked out at 0.279 E-score.

Sequence CCGCGGAA showed a binding signal of 0.0245 E-score.

The sequence CATTGGCG came in with a binding signal of -0.252 E-score.

ATCAGCCG came in with a binding signal of -0.321 E-score.

For the sequence CAAGGGAA, the binding signal is -0.16 E-score.

With GCTAGGCA, the binding signal was determined as 0.0262 E-score.

Take GTTCCCAA: the binding signal was -0.0959 E-score.

In turn, GTAAGTGA gave a binding signal of 0.0686 E-score.

In turn, ACGGCGAG yielded a binding signal of -0.177 E-score.

Sequence AAGTTCAC gave a binding signal of 0.0366 E-score.

CAGTCGGG showed a binding signal of -0.157 E-score.

AAAGGTCT had a binding signal of -0.116 E-score.

As to GCTGGCAC, the binding signal was -0.181 E-score.

Turning to AGTAGTCA, the binding signal was found to be 0.233 E-score.

With ACATAAAA, the binding signal was 0.0858 E-score.

CACTGCAC came in with a binding signal of 0.0921 E-score.

For CCCAAATA, the binding signal was -0.149 E-score.

Regarding CTTCCGTC, the binding signal is -0.278 E-score.

As to GCGCTCCC, the binding signal is -0.413 E-score.

On to AGCCCGGC, for which the binding signal is -0.253 E-score.

CTCTCCGA had a binding signal of -0.125 E-score.

CAAGGTAA: the binding signal was 0.157 E-score.

ACTCATGA came in with a binding signal of -0.0997 E-score.

In turn, ATGCTGCA displayed a binding signal of 0.0185 E-score.

Take ACGAATCA: the binding signal was found to be 0.131 E-score.

Regarding GGCGTAGA, the binding signal was -0.0468 E-score.

Sequence ACGGCTCT registered a binding signal of -0.0378 E-score.

ATGGTCAA returned a binding signal of 0.103 E-score.

CACAGCTG yielded a binding signal of -0.139 E-score.

In the case of AATTGGAT, the binding signal is 0.111 E-score.

Sequence CCGCTGTA displayed a binding signal of -0.0416 E-score.

As to GGACGACC, the binding signal is -0.28 E-score.

GGTAGTAC registered a binding signal of 0.339 E-score.

AAAAGGGA displayed a binding signal of -0.297 E-score.

The sequence AAGGGCAA displayed a binding signal of -0.219 E-score.

In the case of CCCAGCAA, the binding signal was -0.251 E-score.

The sequence ATGTCCTA had a binding signal of -0.00119 E-score.

Consider AAACTTTA, for which the binding signal stood at 0.0513 E-score.

Consider CTTATTAA, for which the binding signal was found to be 0.144 E-score.

On to AGGAGAAC, for which the binding signal was -0.256 E-score.

On to AAACCTTC, for which the binding signal was 0.00352 E-score.

Regarding ACAAGTTA, the binding signal came out at 0.243 E-score.

The sequence AAGATATT displayed a binding signal of 0.319 E-score.

GGACGGAC displayed a binding signal of -0.328 E-score.

GATGGGCC had a binding signal of -0.241 E-score.

Sequence CTAATAAC showed a binding signal of 0.101 E-score.

In turn, CCCTGCGA gave a binding signal of -0.361 E-score.

As for AATTGCAT, the binding signal is 0.0907 E-score.

TATCATCA displayed a binding signal of 0.214 E-score.

As to CAGTACTG, the binding signal stood at 0.0294 E-score.

On to ACCCTCAC, for which the binding signal is -0.366 E-score.

Sequence AATACCGT gave a binding signal of 0.291 E-score.

The sequence GTTCTATA yielded a binding signal of 0.29 E-score.

The sequence CGCTTCGA showed a binding signal of 0.0676 E-score.

Consider ACCTAAGT, for which the binding signal came out at 0.0115 E-score.

In turn, ACGGACTA came in with a binding signal of 0.069 E-score.

With AGAAGCTC, the binding signal was -0.0308 E-score.

For the sequence CGTGCGGA, the binding signal was -0.0584 E-score.

GCATGGAA showed a binding signal of -0.193 E-score.

For the sequence GGCGCCAA, the binding signal is -0.306 E-score.

AATGTTTA displayed a binding signal of 0.177 E-score.

AAATACCC had a binding signal of 0.131 E-score.

For GAATGTCC, the binding signal was -0.146 E-score.

On to ACTGTTCC, for which the binding signal was -0.0752 E-score.

CTACATGC showed a binding signal of 0.308 E-score.

Sequence GTCCCCCA registered a binding signal of -0.206 E-score.

In turn, CGAACAGA returned a binding signal of 0.178 E-score.

In turn, AACGTACT registered a binding signal of 0.187 E-score.

As for AAGTTCTG, the binding signal was determined as 0.105 E-score.

For the sequence CTAGCACC, the binding signal was -0.0148 E-score.

(Values after article PMC6212790.)
